According to PubChem BioAssay AID1508623 (National Center for Advancing Translational Sciences (NCATS), 2021):
The whole screen tested about 48,000 compounds, of which about 450 (0.94%) were called active. Inconclusive results (about 19%) are left out. The call rests on the fitted dose curve; in most records, active means well fitted inhibition curve with a large enough effect; inconclusive means small, poorly fitted or top-dose-only effect; inactive means no such curve, though single readings can be large or run the other way. Some of the results follow.

Experiment: Primary qHTS for Identification of Small Molecule Inhibitors of Huntingtin Promoter Activity; further: nearly all actives have a fitted effect of over 50% in size
Conditions: HEK293 HTT promoter firefly luciferase reporter (activity 0% = vehicle and -100% = no light), 24 h; series mostly up to 57.5 µM; activity change, negative = inhibition: at the top concentration
How it was run: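 Luminescence was read after Dual-Glo reagent and a 10 min room-temperature incubation. Values were normalized to vehicle (0% activity) and zero RLU (-100% activity). Reporter HEK293 cells had been exposed to compounds (up to 57.5 uM final) for 24 h.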

Activity change, negative = inhibition, inactive:
CCOc1ccc(-n2c(C)nc3cc(C(=O)NC4CCCC4)ccc32)cc1 -12%, CCN1CCN(c2ccc(Nc3cc(N(C)C(=O)Nc4c(Cl)c(OC)cc(OC)c4Cl)ncn3)cc2)CC1 3.06%, O=C(O)/C=C(\CC(=O)O)C(=O)O 11.9%, COc1ccc(CNC(=O)Cn2c(=O)n3nc(-c4ccc(OC)cc4)nc3c3ccccc32)cc1 24.4%, COc1ccc(-c2noc(CSc3nnc(C)n3-c3ccc(F)cc3)n2)cc1 -17.5%, COc1ccc(NC(=O)C(c2ccccc2)N(C)C(=O)/C=C\c2ccc3c(c2)OCO3)cc1 (stereo not given) -25%, COc1ccc(-c2c(C)nn3c(C(F)(F)F)cc(-c4ccc(C)cc4)nc23)cc1 -27.5%, Cc1ccccc1OCC(=O)Nc1c(C(=O)Nc2ccccc2F)oc2ccccc12 -19%, COC(=O)c1cnc(N2CCN(c3ccc(OC)cc3)CC2)c2ccccc12 -27.6%, CCCCc1ccc(NC(=O)CSc2nc3ccccc3nc2N2CCCCC2)cc1 2.66%, CCCNC(=O)CCc1c(C)nc2nc(CNC(=O)c3ccccc3)nn2c1C -9.77%, Cc1ccc(F)cc1NC(=O)CSc1nc(-c2cccs2)cc(C(F)(F)F)n1 -6.72%, Cc1ccc(NC(=O)CN2C(=O)CC(c3ccco3)Sc3ccccc32)cc1Cl (stereo not given) -13.7%, COc1ccc(NC(=O)c2oc3ccccc3c2NC(=O)c2cc3ccccc3o2)c(OC)c1 -0.657%, COc1cc(OC)c(NC(=O)Nc2ccc3c(c2)N(C)C(=O)c2ccccc2S3)cc1Cl -27.6%, Cc1ccc(-c2onc(C)c2C)cc1S(=O)(=O)N1CCN(c2ccccc2F)CC1 -5.35%, COc1cc(OC)cc(-n2c(=O)c3sccc3n(Cc3ccc(F)cc3)c2=O)c1 -4.5%, COc1cccc(NC(=O)CCNC(=O)Cn2cnc3ccccc3c2=O)c1 50% [at 11.5 µM], CCn1c2ccccc2c2cc(CN3CCN(Cc4cccc(Cl)c4)CC3)ccc21 -22.5%, COc1cc(C(CC(=O)NCc2ccccc2Cl)N2Cc3ccccc3C2=O)cc(OC)c1OC (stereo not given) -20.6%, CCOc1ccccc1CNC(=O)c1ccc(-n2c(C)cc3c2CCC(C)C3)cc1 (stereo not given) 14.3%, COC(=O)c1ccccc1NC(=O)CCCn1nc(C)c2c(C)n(-c3ccccc3)nc2c1=O 5.01%, Cc1ccc(C(=O)O)cc1NC(=O)c1nsc2ccccc12 3.71%, COc1ccc(CCNC(=O)CN2C(=O)COc3ccc(S(=O)(=O)N4CCCC4)cc32)cc1OC -15.5%, Cc1ccc(Cl)cc1N1CCN(c2nc3ccccc3c3nc(-c4cccnc4)nn23)CC1 -10%, Cc1ccc(CNC(=O)c2cc(-c3ccc(C)c(C)c3)nc3ccccc23)cc1 -9.09%, COC(=O)c1sc(N2C(=O)c3oc4ccc(C)cc4c(=O)c3C2c2ccc(OC)cc2)nc1C (stereo not given) -10.1%, Cc1cc(Cl)ccc1NC(=O)CSc1nc2c(c(=O)[nH]1)CCC2 -12.4%, Cc1ccc(NC(=O)C(=O)NCC(c2cccnc2)N2CCN(Cc3ccccc3)CC2)cc1Cl (stereo not given) -17.9%, CC1CCN(C(c2ccccc2)c2sc3nc(-c4ccco4)nn3c2O)CC1 (stereo not given) -20%, O=C(CSc1nc(-c2ccccc2)cn1-c1ccccc1F)Nc1ccc(F)cc1 -24.7%, Cc1ccc(Nc2cc(C(=O)NCCc3ccccc3)c3ccccc3n2)c(C)c1 0.267%, COc1cc(NC(=O)CN2CCN(S(=O)(=O)c3ccc(Br)cc3)CC2)cc(OC)c1 -10.9%, COc1ccc(NC(=O)CSc2nc(-c3cc(OC)c(OC)c(OC)c3)[nH]c2-c2ccc(F)cc2)cc1 -23.9%, O=C(Cn1nc(-c2ccc(Cl)cc2)c2ccccc2c1=O)Nc1cccc(Br)c1 0%, Cc1ccccc1Cn1c(COc2ccc(Cl)cc2)nc2ccccc21 -15.5%, COc1ccc(CNC(=O)C2CCN(c3nnc(-n4c(C)ccc4C)s3)CC2)c(OC)c1 -14%, O=C(Nc1cccc(F)c1)C1CCCN(S(=O)(=O)c2cccc3cccnc23)C1 (stereo not given) -18.3%, CC1CCN(S(=O)(=O)c2ccc3c(c2)c(=O)c(C(=O)N2CCN(c4cccc(Cl)c4)CC2)cn3C)CC1 -4.5%, O=c1c2cc3c(cc2nc2sc(Nc4ccccc4)nn12)OCO3 39.6%, CCOC(=O)c1c(C)oc2nc(C)nc(NCCc3ccc(OCC)c(OCC)c3)c12 -17.6%, COC(=O)c1ccc(NC(=O)CSc2cn(CC(=O)N3CCCCC3)c3ccccc23)cc1 -18.5%, COc1ccc(N2CCN(c3ncnc4c3cnn4-c3ccc(F)cc3)CC2)cc1 -3.49%, CCCN(C(=O)c1cn(C)c(=O)c2cc(OC)c(OC)cc12)c1ccc(CC)cc1 -24.6%, COc1ccc(NC(=O)C2=CC(c3ccco3)=NS(=O)(=O)N2C)cc1OC -10.1%, CCc1ccccc1NC(=O)CCCSc1nc(-c2ccco2)cc(C(F)(F)F)n1 -4.49%, CCN(c1ccccc1)S(=O)(=O)c1nnc(NC(=O)c2ccccc2OC)s1 -13.3%, COc1cc(C)c(Cc2cnc(N)nc2N)cc1OC 0.49%, CCOCCc1nn2c(=O)cc(COC(=O)c3ccc(NC(=O)C4CCCCC4)cc3)nc2s1 -11.4%, Cc1nn(-c2ccccc2)c(OC(=O)c2ccccc2Br)c1S(=O)(=O)c1ccccc1 -8.84%, O=C(CS(=O)(=O)c1cccc2nsnc12)N1CCN(c2ccccc2F)CC1 8.28%, O=C(Nc1ccc(Cl)cc1)C1CCC(CNS(=O)(=O)c2ccc(Br)s2)CC1 (stereo not given) -12.4%, Cc1cc(NC(=O)c2ccc3c(c2)N(Cc2cccc(Cl)c2)C(=O)c2ccccc2S3(=O)=O)ccc1Br -23.7%, CCCCN(C)CCCNC(=O)C1CCN(S(=O)(=O)CCC)CC1 13.9%, CCN(CC)c1ccc(CNCCCSc2nnnn2C)cc1 -15.4%, COc1ccc(CNC(=O)c2cc(Nc3ccccc3C)nc3ccccc23)cc1 -1.26%, Cc1oc(-c2cccc(Cl)c2)nc1CN1CCC(C(=O)NC(C)c2ccccc2)CC1 (stereo not given) -4.8%, CCOc1ccc(CN2C(=O)c3ccccc3Sc3ccc(C(=O)NCc4ccco4)cc32)cc1 -28.7%, CCc1ccc(NC(=O)CC2C(=O)NCCN2C(=O)c2ccc(F)cc2)cc1 (stereo not given) -6.57%, CCc1ccc(NC(=O)NCCc2c(C)nn(C)c2C)cc1 33%, CCCC(CCC)(C(=O)OCC)C(=O)OCC 3.94%, CCOc1ccccc1CNC(=O)c1ccc(CS(=O)Cc2cccc(Cl)c2)o1 (stereo not given) -16.2%, Cc1cccc(NC(=O)CSc2nnc(NC(=O)Nc3ccccc3)s2)c1C -8.79%, CSc1ccc(C2C(C(=O)Nc3ccccc3)=C(C)Nc3nc4ccccc4n32)cc1 (stereo not given) -3.46%, CSc1ccc(CNC(=O)Cn2nc(N3CCN(c4ccccc4)CC3)ccc2=O)cc1 -0.912%, Cc1ccccc1CNC(=O)C(=O)NCC(c1ccco1)S(=O)(=O)c1cccs1 (stereo not given) -27.3%, COc1cccc(NC(=O)CSc2nnc(-c3cccc(OC)c3)o2)c1 60.4%, NC[C@H]1O[C@H](O[C@H]2[C@H](O)[C@@H](O[C@H]3O[C@H](CO)[C@@H](O)[C@H](N)[C@H]3O)[C@H](N)C[C@@H]2N)[C@H](N)[C@@H](O)[C@@H]1O 0.955% [at 25.2 µM], CCc1ccc(-n2c(=O)c3sc4ccccc4c3n(CC(=O)N(CC)Cc3ccccc3)c2=O)cc1 -10.8%, CCNC(=O)NCc1cccc(Cl)c1 7.32%, O=C(Nc1ccc2nc(SCC(=O)N3CCc4ccccc43)sc2c1)c1ccccc1 -14.6%, Cc1ccc2sc(-c3ccc(N)cc3)nc2c1 11.9%, CCOC(=O)c1c(C)[nH]c(C)c1S(=O)(=O)N1CCCC(C(=O)Nc2cc(C)ccc2C)C1 (stereo not given) -7.94%, CCCCNC(=O)CSc1nc2nc(C)c(Cc3c(F)cccc3Cl)c(C)n2n1 -17.2%, CC(=O)c1ccc(NC(=O)COc2ccccc2-c2nc(-c3ccc(C)cc3)no2)cc1 34.2%, O=C(NC1CC(=O)N(c2cccc(F)c2)C1)c1ccc2c(c1)OCO2 (stereo not given) 0.992%, O=C(C1CCC(Cn2c(=O)c3sccc3n(Cc3ccccc3)c2=O)CC1)N1CCOCC1 (stereo not given) -21.7%, Cc1ccc(-c2nnc(Nc3ccccc3O)c3ccccc23)cc1 -26.1%, O=C(Nc1cc2c(cc1C(=O)c1ccccc1Br)OCCO2)c1ccccc1 -2.04%, CC(=O)O[C@]1(C(C)=O)CC[C@H]2[C@@H]3C=C(C)C4=CC(=O)CC[C@]4(C)[C@H]3CC[C@@]21C 5.94%, CCc1cc(C(=O)Nc2c(C)nn(Cc3ccccc3Cl)c2C)no1 -8.1% [at 11.5 µM], Cc1cc(C)c(NC(=O)CN2C(=O)c3cccnc3Sc3ccccc32)c(C)c1 4.69%, O=C(CCC(=O)N1CC2CCCN2c2ccccc21)NCc1ccc(F)cc1 (stereo not given) -6.59%, COc1ccc(C(=O)NCC(c2ccc3c(c2)OCO3)N2CCN(C)CC2)cc1 (stereo not given) -15.5%, CCOc1ccc(CCNC(=O)c2nnc(Cc3ccc(Cl)cc3Cl)o2)cc1OCC -17.2%, COc1cc(OC)c(N(C)C(=O)c2c(C)oc3ncnc(N4CCCCC4)c23)cc1Cl -30.2%, CCOC(=O)c1cc2c(=O)n3ccccc3nc2n(CC2CCCO2)c1=NC(=O)c1ccccc1C (stereo not given) -13.9%, CCn1cc(/C=C(\NC(=O)c2ccc(C)cc2)C(=O)NCCCn2ccnc2)c2ccccc21 -0.996%, CCOc1ccc2nc(N3CCN(C(=O)c4ccco4)CC3)sc2c1 0.0772%, COc1ccc(CNC(=O)C2CCCN(S(=O)(=O)c3ccc4c(ccn4C)c3)C2)c(OC)c1 (stereo not given) 0%, COc1ccc(NC(C)=O)cc1NC(=O)C1(c2cccs2)CCOCC1 -15.4%, CCc1ccc(-n2nc(CO)c(C(=O)NCCc3ccccc3)n2)cc1 1.01%, O=C(CSc1nc2c([nH]c3ccccc32)c(=O)n1-c1ccc(F)cc1)N1CCc2ccccc21 -11.6%, Cc1cc(C)cc(-n2c(SCC(=O)N3CCC(C)CC3)nc3c([nH]c4ccccc43)c2=O)c1 -8.25%, Cc1ccc(C)c(N2CCN(C(=O)Cc3c(C(=O)O)c(C)cn3C)CC2)c1 -8.57%
